Molecules are shown by their SMILES. Several values for one entry are separate records, joined by “and”; a condition that tells them apart may be missing. Identical values can stand only once.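 Briefly, cells in 96-well plates were exposed to five compound concentrations for 48 h, and endpoints were estimated by linear interpolation. At the GI50, growth is halved. The concentration for full growth arrest is given as TGI.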 Bounds are passed on as bounds.

Results on 29 molecules are retold here after PubChem BioAssay (NCI).

In this test the test system is NCI-H322M lung. The experiment in a line: NCI anticancer screen, dose series, 48 h.

`CC(=O)[CH-]C(=O)c1ccccc1.CC(=O)[CH-]C(=O)c1ccccc1.CC(C)CCCC(C)[C@H]1CCC2[C@@H]3CC=C4C[C@@H]([O-])CC[C@]4(C)C3CC[C@@]21C.CC(C)CCCC(C)[C@H]1CCC2[C@@H]3CC=C4C[C@@H]([O-])CC[C@]4(C)C3CC[C@@]21C.[Ti+4]` (some centres undefined): the GI50 is more than 100 µM and the TGI was more than 100 µM.

On to `COc1c(OC(C)C)c(OC(C)C)c2oc(=O)n3c2c1C(c1ccccc1-n1c(C)ccc1C)C=C3` (centres undefined), for which the TGI turned out to be 78.2 µM.

Regarding `COc1cc2c(cc1OC)-c1ccc3cc4c(cc3c1N(CCCn1ccnc1)C2)OCO4`, the GI50 is 16.2 µM and the TGI stood at 66.7 µM.

Regarding `CCN(CC)CCCNC(=O)C1COc2cc(-c3cc(=O)c4ccccc4o3)ccc2O1` (centres undefined), the TGI is more than 100 µM.

`CCN1C(=O)C(=C/C=C/C=C2/N(C)c3ccccc3C2(C)C)C(=O)N(CC)C1=S` registered a TGI of more than 100 µM.

The molecule `Nn1c(CCCCCCCCc2nnc(COc3ccc4ccccc4c3O)n2N)nnc1COc1ccc2ccccc2c1O` gave a TGI of more than 100 µM.

Molecule `COc1cc(C2SCC(=O)N2c2ccc(-n3c(-c4ccccc4)nc4ccccc4c3=O)cc2)cc(OC)c1OC` (centres undefined) showed a TGI of more than 100 µM.

In the case of `C=C(NC(=O)C(=C)NC(=O)c1csc(C2=NC3c4csc(n4)C4NC(=O)c5csc(n5)C(C(C)(O)C(C)O)NC(=O)C5CSC(=N5)C(=CC)NC(=O)C(C(C)O)NC(=O)c5csc(n5)C3(CC2)NC(=O)C(C)NC(=O)C(=C)NC(=O)C(C)NC(=O)C(C(C)CC)NC2C=Cc3c(C(C)O)cc(nc3C2O)C(=O)OC4C)n1)C(N)=O` (centres undefined), the GI50 was 76.7 µM and the TGI is more than 100 µM.

On to `COc1cc(OC)c(SSCCCCS(=O)O)c(OC)c1`, for which the TGI came out at 36.5 µM.

Molecule `O=C1c2ccccc2-c2oc(=O)c3ccccc3c21` yielded a TGI of more than 100 µM.

In turn, `CC(C)(C)CC(C)(C)c1cc2c(O)c(c1)Cc1cc(C(C)(C)CC(C)(C)C)cc(c1O)Cc1cc(C(C)(C)CC(C)(C)C)cc(c1O)Cc1cc(C(C)(C)CC(C)(C)C)cc(c1O)Cc1cc(C(C)(C)CC(C)(C)C)cc(c1O)C2` came in with a TGI of more than 100 µM.

For `CS(=O)(=O)CCNCc1ccc(-c2ccc3ncnc(Nc4ccc(OCc5ccccc5)c(Br)c4)c3c2)o1`, the GI50 was 2.37 µM and the TGI is more than 25 µM.

On to `COc1ccc(N2C(=O)[C@H]3[C@H]4CC(C(C)(C)C)CC[C@H]4c4c(n(C)c5ccccc45)[C@H]3C2=O)cc1` (some centres undefined), for which the TGI was more than 100 µM.

In the case of `CC(C)OP(=O)(OC(C)C)c1nc(-c2ccccc2)n(-c2ccc([N+](=O)[O-])cc2)n1`, the TGI is more than 100 µM.

As for `C=C1C(=O)O[C@H]2[C@H]1CC/C(COC(=O)C(=O)c1cn(C)c3ccc(Cl)cc13)=C\CC[C@@]1(C)O[C@@H]21`, the GI50 was 2.04 µM and the TGI turned out to be 4.34 µM.

In the case of `CCOc1ccc(N=Cc2ccc3cc(C)ccc3n2)cc1`, the TGI was more than 100 µM.

Regarding `C[C@]12CC[C@H](OC3OC(CO)C(O)C(O)C3O)C[C@H]1CC[C@@H]1[C@@H]2CC[C@]2(C)[C@@H](C3=CCOC3=O)CC[C@]12O` (some centres undefined), the GI50 was more than 100 µM; the TGI was 50 µM and > 100 µM.

For the molecule `Cc1nc(C(N)=S)sc1C(=O)CC(=O)C(=O)Nc1ccccc1[N+](=O)[O-]`, the TGI is more than 100 µM.

On to `N#CC1=C(N)Oc2c(ccc3ccccc23)C1c1ccccc1` (centres undefined), for which the GI50 is 0.0879 µM and the TGI stood at 20.4 µM.

For `O=C1CCCCCCCCCCC1CCCCCBr` (centres undefined), the TGI was found to be 84.5 µM.

Regarding `CCN(Cc1ccccc1)c1ccc(CO)c(Cl)c1`, the GI50 is 9.94 µM and the TGI is more than 95.9 µM.

In the case of `COc1ccc2cc3[nH]c(=O)cc(O)c3cc2c1OC`, the TGI was more than 100 µM.

Molecule `CCOC(=O)/C(=C\c1ccc(N(CCC#N)CCC#N)cc1)NC(=O)c1cc([N+](=O)[O-])ccc1Cl` returned a TGI of more than 100 µM.

As to `c1ccc(N=C(Nc2ccccc2)N2CCCC2)cc1`, the TGI was more than 100 µM.

In the case of `CCn1c(SCC(=O)N/N=C/c2ccccc2)nc2ccccc2c1=O`, the TGI is more than 100 µM.

For `CN(C)CCNC(=O)c1cccc2nc3cc(Cl)ccc3nc12`, the TGI is 10.4 µM.

For `Nc1c2c(c(O)c3c1=C(CO)C=N3)=NCCS2`, the GI50 was 0.115 µM and the TGI is 0.237 µM.

`O=c1ccs[nH]1`: the TGI was 76.6 µM.

In the case of `C[C@@H](O)[C@H](NC(=O)N[C@@H](CC(N)=O)c1nc([C@@H](N)CO)no1)C(=O)O`, the GI50 is more than 100 µM and the TGI is more than 100 µM.
